Data taken from PubChem BioAssay AID686978 (National Center for Advancing Translational Sciences (NCATS), 2013).
“And” between values parts separate entries of the source, which are not always exact repeats. Identical values can stand only once. Screen size: about 420,000 compounds; about 64,000 (15%) were called active. The inconclusive results got no clear call from the source; some entries with a clear call stand among them for comparison. Calls follow the shape of the dose curve; as a rule, active = well fitted inhibition curve with a large enough effect; inconclusive = small, poorly fitted or top-dose-only effect; inactive = flat fitted curve, though single readings scatter. Where the call is inconclusive, the potency comes from a doubtful curve fit.

experiment: qHTS for Inhibitors of human tyrosyl-DNA phosphodiesterase 1 (TDP1): qHTS in cells in absence of CPT; conditions: DT40 Tdp1-/- hTDP1 cells, no CPT, ATP luminescence, 48 h; activity change, negative = growth inhibition: at 46.2 µM (top of the series); also: nearly all actives have a fitted effect of over 55% in size
Procedure, shortened: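 Readout: luminescence from CellTiter-Glo after 30 min in the dark at RT. Cells: DT40 Tdp1-/- with stable hTDP1, 400/well. Exposure: compounds alone, ≥48 hr, 37 °C.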
% is scaled to controls: 0 for no effect and ±100 for the full control effect; potency is read from the fitted curve at half-maximal effect; tags tell the direction and shape of the fitted curve.

Row | SMILES | Potency | activity change, negative = growth inhibition
1 | Cc1ccc(C(=O)Nc2cccc(C(=O)N/N=C/c3ccccc3F)c2)cc1 | inconclusive: 29.1 µM [inhibitor, single point] | 
2 | COc1cccc2sc(N(CCN(C)C)C(=O)c3ccc4c(c3)CCCC4)nc12 | inconclusive: 29.1 µM [inhibitor, single point] | 
3 | COc1ccc(CN2C(=O)C(C)Oc3ccccc32)cc1 (configuration not stated) |  | inconclusive: -30.4% [inhibitor]
4 | O=C(Nc1ccc(S(=O)(=O)N2CCCCC2)cc1)C1CC(=O)N(c2ccc(F)cc2)C1 (configuration not stated) | inconclusive: 18.4 µM [inhibitor, single point] | 
5 | O=C(C1=C(O)C(=O)N(CCN2CCOCC2)C1c1cccc(F)c1)c1cc2ccccc2o1 (configuration not stated) |  | inactive: -13.4%
6 | CCCCc1cc(=O)oc2cc(C)c(CN3CCCC3)c(O)c12 | inconclusive: 29.1 µM [inhibitor, single point] | 
7 | NC(N)=NS(=O)(=O)c1ccc(NC(=S)Nc2ccc(F)cc2)cc1 |  | inconclusive: -30.8% [inhibitor]
8 | CC1CCCC(C)N1C(=O)CSc1nc(N)c(-c2ccccc2)c(=O)[nH]1 (configuration not stated) |  | inactive: 0.75%
9 | Cc1cc(C)c(S(=O)(=O)N2CCC(C(=O)NCc3ccc(Cl)cc3Cl)CC2)c(C)c1 | inconclusive: 23.1 µM [inhibitor, single point] | 
10 | CCC(CC)C(=O)N1c2ccc(F)cc2CCC1C (configuration not stated) | inconclusive: 20.6 µM [inhibitor, single point] | 
11 | O=C(N/N=C/c1cccnc1)NC12CC3CC(CC(C3)C1)C2 |  | inconclusive: -30.5% [inhibitor]
12 | CCOC(=O)c1c(-c2ccc(C)o2)csc1NC(=O)CSc1nnc(C)s1 | inconclusive: 20.6 µM [inhibitor, single point] | 
13 | Cn1c(-c2ccccc2O)cc2ccccc21 | active: 18.4 µM | 
14 | COc1ccc(/C=C/C(=O)c2cc(F)ccc2OC(=O)c2ccccc2OC)cc1OC | active: 4.61 µM | 
15 | CCCCn1c(N)c(N(CC)C(=O)CSc2nnnn2-c2cc(C)ccc2C)c(=O)[nH]c1=O |  | inactive: -14.1%
16 | CC(=O)c1ccc(NC(=O)C2=CC(c3ccc4c(c3)OCO4)=NS(=O)(=O)N2C)cc1 | inconclusive: 29.1 µM [inhibitor, single point] and inconclusive: 20.6 µM [inhibitor, single point] | 
17 | Cc1ccc2c(CN(C)Cc3cccc(F)c3)cc(=O)oc2c1 |  | inactive: 7.05%
18 | Oc1ccc(CCC2CCCCN2Cc2nc(C3CC3)no2)cc1 (configuration not stated) | inconclusive: 23.1 µM [inhibitor, single point] | 
19 | CNc1nc2c(C)cccn2c(=O)c1C=Nc1ccc(OC)cc1 |  | inactive: 8.41%
20 | CC(SCc1ccccc1)C(=O)N/N=C/c1ccc(OCC(=O)NCc2ccco2)cc1 (configuration not stated) | inconclusive: 25.9 µM [inhibitor, single point] | 
21 | O=C1NC(c2cccc([N+](=O)[O-])c2)Oc2ccccc21 (configuration not stated) |  | inactive: -17.5%
22 | COc1ccc(C(=O)Nc2c(F)c(F)c(F)c(F)c2F)cc1OC | inconclusive: 23.1 µM [inhibitor, single point] | 
23 | COc1ccc2c(c1OC)C(=O)N1C2SC(C)(C)[C@H]1C(=O)NCCCOC(C)C (some centres not stated) |  | inactive: 22.9%

Row | SMILES | Potency | activity change, negative = growth inhibition
24 | Cn1c(C2=C(O)CN(Cc3ccccc3)C2=N)nc2ccccc21 |  | inactive: 1.53%
25 | COC(=O)COc1cccc2c(=O)n(CC(=O)NCc3ccccc3)ccc12 | active: 2.06 µM | 
26 | O=c1n(Cc2cccc(C(F)(F)F)c2)c2ccccc2c2nc(-c3ccccc3)nn12 | active: 25.9 µM | 
27 | COc1ccc(-c2noc(CCC(=O)NCc3ccc(C)cc3)n2)cc1 |  | inactive: -13.9%
28 | COc1ccc(S(=O)(=O)Nc2cccc3c2O[C@H](CN(C)S(=O)(=O)c2ccc(F)cc2)[C@H](C)CN([C@H](C)CO)C3=O)cc1 | inconclusive: 18.4 µM [inhibitor, single point] | 
29 | COc1ccc(CC2C(=O)NC(C)C(=O)N(C)C3Cc4ccc(cc4)Oc4cc(ccc4O)CC(C(=O)NC(C)C(=O)NC(C)C(=O)N2C)N(C)C3=O)cc1 (configuration not stated) | active: 0.164 µM | 
30 | Nc1nnc(Cc2ccc(Cl)c(Cl)c2)s1 | inconclusive: 2.59 µM [inhibitor, full curve, poor fit] | 
31 | COc1ccc(CNC(=O)CCc2c(C)nc3cc(-c4ccccc4OC)nn3c2C)cc1 | inconclusive: 20.6 µM [inhibitor, single point] | 
32 | COc1ccc(CNC(=O)C2CCCN2c2nc(C)c3ccccc3n2)cc1 (configuration not stated) |  | inactive: -20.5%
33 | Cc1cccc(-c2noc(CN(C(=O)c3ccc4c(c3)OCO4)C(C)C)n2)c1 | inconclusive: 23.1 µM [inhibitor, single point] | 
34 | Cc1cc(C)n(-c2ccc(C(=O)Nc3cccnc3Cl)cc2)n1 | inconclusive: 16.4 µM [inhibitor, single point] | 
35 | COc1ccc(-c2ccc(=O)n(CC(=O)Nc3ccc(C)cc3C)n2)cc1 | inconclusive: 23.1 µM [inhibitor, single point] | 
36 | CCc1ccc([C@@H]2CC(=O)[C@@H]3CN(S(=O)(=O)c4ccccc4C)[C@H](c4ccc(Cl)cc4)C[C@@H]3N2S(=O)(=O)c2ccc(C)cc2)cc1 |  | inactive: -25.5%
37 | Cc1c(C(=O)NCCN2CCOCC2)oc2ccccc12 |  | inactive: -22.5%
38 | COc1ccccc1C(=O)NCCCNC(=O)c1cccnc1 |  | inactive: -11.8%
39 | C=CCNC(=O)c1ccc(C(=O)c2ccccc2)cc1 | inconclusive: 1.46 µM [inhibitor, full curve] | 
40 | CC(C)=CCN1CCN(Cc2cnc(-c3ccccc3)s2)CC1CCO (configuration not stated) | inconclusive: 29.1 µM [inhibitor, single point] | 
41 | O=C(CNC(=S)NC(=O)c1ccc(Cl)cc1)c1ccccc1 | inconclusive: 0.116 µM [inhibitor, full curve, poor fit] | 
42 | O=c1[nH]nc(Cc2ccc3ccccc3n2)c2ccccc12 | inconclusive: 5.17 µM [inhibitor, full curve] | 
43 | CC1CCN(c2ccc3nnc(CCC(=O)NCC(C)c4ccccc4)n3n2)CC1 (configuration not stated) | inconclusive: 29.1 µM [inhibitor, single point] | 
44 | CCOC(=O)C1CCN(C(=O)CCc2c(C)nc3cc(-c4ccc(OC)cc4OC)nn3c2C)CC1 | inconclusive: 29.1 µM [inhibitor, single point] | 
45 | CCOC(=O)C1CCN(C(=O)CC2C(=O)N(Cc3ccccc3)C(C)c3nc4ccccc4n32)CC1 (configuration not stated) |  | inactive: -12.5%
46 | CCOC(=O)c1cccc(NC(=O)Cn2ncc3c4ccccc4n(Cc4ccccc4)c3c2=O)c1 | inconclusive: 14.6 µM [inhibitor, single point] | 

Row | SMILES | Potency | activity change, negative = growth inhibition
47 | COc1ccc(-c2cc3c(=O)n(CC(=O)NCc4cccnc4)ncn3n2)cc1 | inconclusive: 8.2 µM [inhibitor, partial curve] | 
48 | COc1ccccc1N1CCN(C(=O)c2ccc3c(Cl)c4c(nc3c2)CCCC4)CC1 | inconclusive: 29.1 µM [inhibitor, single point] | 
49 | CCC(c1nnnn1C1CCCC1)N1CCN(C/C=C/c2ccccc2)CC1 (configuration not stated) | inconclusive: 23.1 µM [inhibitor, single point] | 
50 | Cc1[nH]n(-c2ccccc2)c(=O)c1/C=N/N(c1ccccc1)c1ccccc1 | inconclusive: 29.1 µM [inhibitor, single point] | 
51 | CCc1ccc2oc(C(=O)Nc3cccc(C(F)(F)F)c3)cc(=O)c2c1 |  | inactive: -24.7%
52 | O=C(c1ccc(-c2ccccc2)cc1)C1CCCN(Cc2ccncc2)C1 (configuration not stated) | inconclusive: 14.6 µM [inhibitor, single point] | 
53 | CSc1nn(Cc2ccc(Cl)cc2)c(N(C(C)=O)C(C)=O)c1S(=O)(=O)c1ccccc1 | inconclusive: 18.4 µM [inhibitor, single point] | 
54 | Cn1c(=O)c2sccc2n2c(CCCC(=O)NCCc3ccccc3)nnc12 |  | inactive: -3.77%
55 | CCCCNC(=O)c1ccc(-n2c(=S)[nH]c3ccccc3c2=O)cc1 |  | inactive: -6.01%
56 | Cc1cccc(C(=O)N[C@H](C(=O)Nc2ncc(C)s2)C(C)C)c1 | inconclusive: 20.6 µM [inhibitor, single point] | 
57 | COc1ccc(-c2csc(Nc3ccc(S(N)(=O)=O)cc3)n2)cc1OC | inconclusive: 18.4 µM [inhibitor, partial curve] | 
58 | Nc1c(C(=O)OCC2CCCO2)c2nc3ccccc3nc2n1-c1ccc2c(c1)OCCO2 (configuration not stated) | inconclusive: 32.6 µM [inhibitor, partial curve, poor fit] | 
59 | Cc1cc(C(=O)CSc2nnnn2-c2ccc(O)cc2)c(C)n1C | active: 16.4 µM | 
60 | O=C(NCc1cn(-c2ccccc2)nc1-c1ccccc1)c1ccc([N+](=O)[O-])cc1 | inconclusive: 29.1 µM [inhibitor, single point] | 
61 | Cc1ccc(NS(=O)(=O)c2ccc3[nH]c(=O)ccc3c2)cc1N(C)C | inconclusive: 13 µM [inhibitor, partial curve, poor fit] | 
62 | COc1ccc(OC)c(NC(=O)c2cc(-c3c(C)cc(C)cc3O)n[nH]2)c1 | inconclusive: 29.1 µM [inhibitor, single point] | 
63 | COc1ccc(S(=O)(=O)N2CCOC23CCN(S(=O)(=O)c2cccs2)CC3)cc1 | active: 16.4 µM | 
64 | O=C(O)C[C@H]1c2cc(C(F)(F)F)ccc2S(=O)(=O)N1C1CCCC1 | inconclusive: 15.8 µM [inhibitor, partial curve, poor fit] | 
65 | CCNC(=O)c1cc2c(=O)n3cccc(C)c3nc2n(CCc2ccccc2)c1=N | active: 12.6 µM | 
66 | Cc1ccc(N(CC(=O)NC(C)(C)C)C(=O)CCC(=O)Nc2ccccn2)c(C)c1 | inconclusive: 9.2 µM [inhibitor, partial curve, poor fit] | 
67 | C#CCOc1ccc(-c2nnc(Nc3cccc(C)c3)c3ccccc23)cc1 | inconclusive: 23.1 µM [inhibitor, single point] | 
